The record followed here is article PMC10902388.

This experiment has as its target full-length human E6AP (C-terminal TEV-6xHis-Avi) (human) (UniProt Q05086). The experiment is described as follows: SPR. In general terms: SPR reads the build-up and loss of mass on a sensor chip optically.

Regarding “recombinant MBP-18E6 (a stretch of the chain, chain not printed)”, the koff – broadly, the rate constant with which the complex falls apart – (natural protein, chains chain, biotin on the Avi tag (BirA biotin-protein ligase) in the SPR experiments, remark: other sources report otherwise) was 0.00047 s⁻¹. Consider “recombinant MBP-18E6 (a stretch of the chain, chain not printed) (natural protein; biotin on the Avi tag (BirA biotin-protein ligase) in the SPR experiments; other documents disagree on this pair)”, for which the Kd – broadly, the equilibrium constant for the complex coming apart – was found to be 0.98 nM.
